The whole screen tested about 310,000 compounds, of which about 2,200 (0.71%) showed an effect of 50% or more. The effect is printed as a negative number. The list shows a part of the results.
Target: human ether-à-go-go-related gene (hERG) potassium channel (human, UniProt Q12809)
Experiment: primary screen, population patch clamp on CHO cells stably expressing hERG

Sequence of human ether-à-go-go-related gene (hERG) potassium channel (Q12809 whole entry, looked up): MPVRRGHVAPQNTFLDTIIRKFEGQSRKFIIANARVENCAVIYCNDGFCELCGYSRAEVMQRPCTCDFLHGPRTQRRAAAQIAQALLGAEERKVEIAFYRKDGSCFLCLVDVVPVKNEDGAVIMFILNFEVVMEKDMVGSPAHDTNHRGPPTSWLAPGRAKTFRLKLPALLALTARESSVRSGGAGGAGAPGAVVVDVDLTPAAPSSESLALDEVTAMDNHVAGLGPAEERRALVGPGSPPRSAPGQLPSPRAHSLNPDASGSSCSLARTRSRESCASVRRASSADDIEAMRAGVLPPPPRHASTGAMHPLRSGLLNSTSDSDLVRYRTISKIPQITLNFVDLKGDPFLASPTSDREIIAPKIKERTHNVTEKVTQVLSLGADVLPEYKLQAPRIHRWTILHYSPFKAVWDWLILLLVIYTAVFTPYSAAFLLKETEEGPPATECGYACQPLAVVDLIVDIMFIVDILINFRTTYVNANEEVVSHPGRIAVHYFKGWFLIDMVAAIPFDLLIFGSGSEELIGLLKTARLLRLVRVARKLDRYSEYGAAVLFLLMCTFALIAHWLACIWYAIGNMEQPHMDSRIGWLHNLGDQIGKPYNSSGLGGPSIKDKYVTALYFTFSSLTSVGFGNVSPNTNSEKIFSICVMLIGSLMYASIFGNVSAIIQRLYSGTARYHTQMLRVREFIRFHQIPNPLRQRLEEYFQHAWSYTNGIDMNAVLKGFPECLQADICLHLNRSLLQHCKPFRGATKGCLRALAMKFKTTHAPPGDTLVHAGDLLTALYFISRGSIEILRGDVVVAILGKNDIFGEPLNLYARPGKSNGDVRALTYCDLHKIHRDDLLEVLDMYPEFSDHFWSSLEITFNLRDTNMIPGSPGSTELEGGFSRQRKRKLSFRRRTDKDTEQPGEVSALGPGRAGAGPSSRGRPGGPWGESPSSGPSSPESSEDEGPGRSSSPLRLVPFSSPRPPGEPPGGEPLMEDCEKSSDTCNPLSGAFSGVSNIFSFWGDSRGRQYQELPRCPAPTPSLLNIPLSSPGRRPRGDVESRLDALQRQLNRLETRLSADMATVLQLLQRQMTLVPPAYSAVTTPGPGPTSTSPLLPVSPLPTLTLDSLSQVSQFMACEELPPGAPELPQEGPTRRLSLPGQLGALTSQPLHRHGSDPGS

Row | SMILES | hERG current change (%, negative = inhibition) at 1uM [%]
1 | O=C(/C=C/c1ccco1)Nc1ccccc1N1CCCC1 | -5.29
2 | COc1ccccc1N(CC(=O)NC1CCCCC1)S(=O)(=O)c1ccccc1 | 15.3
3 | O=C1c2ccc([N+](=O)[O-])cc2C(=O)N1c1ccc([N+](=O)[O-])cn1 | 12.4
4 | O=C(Nc1nc2ccc(F)cc2s1)Oc1ccccc1 | 18.8
5 | O=C(CC1C(=O)NCCN1Cc1cccc(F)c1)NC1CCCCCC1 (stereo not shown) | 14
6 | O=C(Nc1ccccc1)C1CCCN(S(=O)(=O)c2ccc(-n3cnnn3)cc2)C1 (stereo not shown) | -8.45
7 | CCOC(=O)c1c(C)n(C)c2cc(CN(C)C)c(O)c(S(=O)(=O)c3ccccc3)c12.Cl | 2.33
8 | O=C(OCC1OC2OC3(CCCCC3)OC2C2OC3(CCCCC3)OC12)c1ccccc1 (stereo not shown) | 11.5
9 | Cc1nc(N2CCOCC2)nc2c1CCCC2 | 0.169
10 | C=CCNC(=O)COC(=O)/C=C/c1cccs1 | 14.7
11 | O=C(c1cccs1)N(c1ccc(Br)cc1)C1C=CS(=O)(=O)C1 (stereo not shown) | -5.97
12 | CCCNCC1C(Oc2ccc(Cl)cc2Cl)C(=O)N1c1cccc(C)c1C.Cl (stereo not shown) | 8.41
13 | CN(C)c1nc(N)nc(CSc2nnnn2-c2ccc(C(=O)O)cc2)n1 | -0.858
14 | O=C(NCCN1CCCC(O)C1)c1cc(COc2c(F)cccc2F)on1 (stereo not shown) | 10.4
15 | CCOC(=O)C1=C(C)N(CCCC(=O)O)C(=O)NC1c1ccccc1 (stereo not shown) | 5.24
16 | Cc1cc(C)c(S(=O)(=O)/N=C2\C=CC(=O)C(Cl)=C2)c(C)c1 | 10.9
17 | CCOc1c(Cl)cnn(-c2ccc(C)cc2)c1=O | 8.64
18 | CN(C(=O)CSc1nnc(-c2ccccc2)c(-c2ccccc2)n1)C1CCS(=O)(=O)C1 (stereo not shown) | -2.13
19 | O=C(CSc1nnc(NC(=O)c2ccc(F)cc2)s1)NC1CC1 | 14.5
20 | Cc1nc2cc(-c3ccccc3)nn2c(C)c1CCC(=O)NCc1ccco1 | -2.36
21 | S=C(NCc1ccco1)NCc1ccccc1Cl | 16.2
22 | CC1(C)CC(=O)c2cn3c(nc2C1)nc1ccccc13 | -31.2
23 | O=C(O)/C=C\c1cccc(-n2cnnn2)c1 | 7.75

Row | SMILES | hERG current change (%, negative = inhibition) at 1uM [%]
24 | Cc1cc(C)n(-c2ccc(NC(=O)C3CCN(Cc4ccccn4)CC3)cc2)n1 | 13
25 | NC(=S)N/N=C/c1coc2ccc(Cl)cc2c1=O | 10.1
26 | Cc1ccc(OCc2cc(C(=O)NC3CCOC3)no2)cc1C (stereo not shown) | 10
27 | O=C(COc1ccc(S(=O)(=O)N2CCCCC2)cc1)N1CCCC1 | 8.74
28 | COc1ccc(C(=O)Nc2ccc3oc(Cc4ccc(Cl)cc4)nc3c2)cc1OC | 11.8
29 | COCOc1ccc(/C=C/C(=O)c2c(OCOC)cc(OCOC)c(CC=C(C)C)c2O)cc1OCOC | 7.36
30 | CN(C)c1cccc(C(=O)NCCCn2ccc3ccccc32)c1 | 17.7
31 | CC(C)N1C(=O)CCC1C(=O)N1CCCc2ccccc21 (stereo not shown) | -2.46
32 | CCc1ccccc1S(=O)(=O)Cc1ccc(C(=O)NC(C)C)o1 | 5.53
33 | CN(C(=O)COC(=O)c1cncc(Br)c1)C1CCS(=O)(=O)C1 (stereo not shown) | 4.49
34 | Cc1ccc(C(=O)Nc2ccccc2OC(F)F)cc1 | 4.15
35 | COc1ccc(CCNC(=O)c2cc(C3CC3)nc3c2cnn3C(C)C)cc1 | 5
36 | O=c1[nH]c(=O)n(-c2ccc(Cl)cc2)c(O)c1C=Nc1ccc(S(=O)(=O)Nc2nccs2)cc1 | 13.7
37 | O=C(NCc1ccccc1)NC1CCCCC1 | 12.5
38 | COc1ccc(C2Nc3ccccc3C(=O)N2NC(C)=O)c(OC)c1 (stereo not shown) | 15.4
39 | O=C(CNc1ccccc1)N/N=C/c1c(O)ccc2ccccc12 | 19.1
40 | Cc1ccc(SCCNC(=O)C(CO)(CO)CO)cc1 | 2.8
41 | CC(C)n1nnnc1SCC(=O)c1c(N)n(C2CC2)c(=O)[nH]c1=O | 12.3
42 | CC1CCc2[nH]c3ccc(C(=O)O)cc3c2C1 (stereo not shown) | 18.5
43 | CCN(CC)S(=O)(=O)c1ccc(Cl)c(C(=O)OC)c1 | -4.62
44 | Cc1cc(C)[n+](-c2ccc(Oc3ccccc3)c(S(=O)(=O)[O-])c2)[nH]1 | 10.5
45 | O=S1(=O)CCOC[C@H](CC2CCCCC2)N1Cc1ccccc1Br | 9.71
46 | CSc1ccc(C(=O)C2CCCN(C(=O)c3ccc(C)nc3)C2)cc1 (stereo not shown) | 8.09

From article PMC4336329 (PLoS ONE, 2015)
